Laboratory results published in PubChem BioAssay AID504832 (National Center for Advancing Translational Sciences (NCATS), 2011).
Screen size: about 310,000 compounds; about 18,000 (5.8%) were called active. The shares of active, inactive and inconclusive entries below differ from those in the screen. Calls come from the whole dose curve; as a rule, active = well fitted inhibition curve with a large enough effect; inconclusive = small, poorly fitted or top-dose-only effect, or another doubt; inactive = no such curve, though single readings can be large or run the other way. Potencies of inconclusive entries are left out as doubtful fits.

assay: Primary qHTS for delayed death inhibitors of the malarial parasite plastid, 48 hour incubation; details: P. falciparum luciferase growth in erythrocytes; series mostly up to 28.7 µM
Method in brief: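 Luciferase-expressing P. falciparum in infected erythrocytes (2% hematocrit, 0.1% parasitemia final) in RPMI 1640/0.5% Albumax were exposed to compound for 48 hours at 37 C, 5% CO2; growth read as luminescence.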
Potency is the fitted concentration of half-maximal effect; tags give direction and shape of the fitted curve.

SMILES	Potency
COc1ccccc1CNC(=O)c1ccccc1NC(=O)C1=C(C)OCCS1	inconclusive [inhibitor, partial curve]
COc1ccc(Cl)cc1NC(=O)COC(=O)C1COc2ccccc2O1 (centres undefined)	inactive
COc1ccccc1CC(=O)N1CCC(CCC(=O)NC2CC2)CC1	inconclusive [inhibitor, partial curve, poor fit]
CC(C)(C)c1ccc(-c2n[nH]c(=S)n2CCCN2CCOCC2)cc1	inconclusive [inhibitor, partial curve, poor fit]
Cc1cccc(OCC(=O)NCC(=O)N/N=C/c2ccc(O)cc2O)c1	active: 10.4 µM
CCOC(=O)c1c(/N=C/N(C)C)sc(C(=O)OC)c1C	inactive
Cc1cc(C)cc(NC(=O)Cn2c(SCc3cc(C)ccc3C)nc3ccncc32)c1	inactive
Cc1cc(C)c(S(=O)(=O)Nc2ccnc(-c3cccnc3)n2)c(C)c1	inactive
COc1ccccc1NC(=S)N(Cc1cccnc1)Cc1ccccc1Cl	inconclusive [inhibitor, single point]
COc1ccccc1C(C)NS(=O)(=O)c1ccc(Cl)nc1 (centres undefined)	inconclusive [inhibitor, single point]
Cc1ccccc1OCC(=O)NNC(=S)NC(=O)c1ccco1	inconclusive [inhibitor, partial curve, poor fit]
CCCCC(=O)NC(c1cccc([N+](=O)[O-])c1)c1c(OC(C)=O)ccc2ccccc12 (centres undefined)	active: 0.828 µM
Cc1cc(OC(C)C(=O)NCC2CCC(C(=O)O)CC2)c2c(C)c(Cc3ccccc3)c(=O)oc2c1 (centres undefined)	inconclusive [inhibitor, full curve]
O=C(NC1CCCCC1)c1c2c(nc3ccccc13)CCC2	inactive
COc1c(F)c(F)c(C(=O)Nc2ccc(N3CCN(Cc4ccccc4)CC3)cc2)c(F)c1F	inconclusive [inhibitor, single point]
COc1ccc(S(=O)(=O)/C(C#N)=C/Nc2ccc(NC(C)=O)cc2)cc1	inconclusive [inhibitor, full curve, poor fit]
CC1(C)NC(=O)N(CC(=O)N2CCC(Cc3ccccc3)CC2)C1=O	inconclusive [inhibitor, partial curve, poor fit]
COc1ccc(CCNC(=O)CN2c3cccc4cccc(c34)S2(=O)=O)cc1	inactive
COc1cc(NC(=O)CN2C(=O)NC(c3ccccc3)(c3ccccc3)C2=O)c(C)cc1[N+](=O)[O-]	inconclusive [inhibitor, single point]
